Usually EC50 (read off the curve) stands for the midpoint of the concentration-response curve.

Test [1] has as its target T1, Human OX40 (human, UniProt P43489 29-277).
T1 sequence: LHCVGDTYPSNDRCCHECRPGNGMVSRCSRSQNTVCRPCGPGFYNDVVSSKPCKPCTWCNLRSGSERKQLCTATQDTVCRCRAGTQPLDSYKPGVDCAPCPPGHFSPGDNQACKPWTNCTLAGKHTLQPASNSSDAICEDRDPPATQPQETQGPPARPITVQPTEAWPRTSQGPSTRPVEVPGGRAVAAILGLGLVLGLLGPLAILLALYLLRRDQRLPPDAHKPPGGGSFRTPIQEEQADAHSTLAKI
Description: cell-based or functional assay.

The next test deals with T2, Cynomolgus monkey OX40 (cynomolgus monkey).
T2 construct: also called cyno OX40
Description: flow cytometry on activated primary CD4+ T cells. The protocol:
(§1) Cyno CD4⁺ T cells (1×10⁶ per mL in complete medium) were incubated for 48 hours in a T75 cell culture flask with 2 μg/mL PHA-L and 20 IU/mL IL-2, to activate T cells and induce OX40 expression. Activated CD4⁺ T cells were removed from the flask and 100,000 cells were transferred to each well of a non-tissue culture treated 96-well round-bottom plate for binding assays and washed with 200 μL FACS buffer. Binding was performed with 10 μg/mL OX40mAb24 or 9B12 serially diluted 4-fold in FACS buffer for an 11-point data curve, or both R347 human IgG1 or mouse IgG1 clone MOPC-21 (negative controls) serially diluted 6-fold for a 3 point data curve. OX40mAb24, 9B12 or control protein was added to CD4⁺ T cells and incubated. […] Following secondary antibody incubation, cells were processed for flow cytometry as described in Section 2.3.
(§2) Rhesus CD4⁺ T cells (1×10⁶ per mL in complete medium) were cultured for 48 hours in a T75 cell culture flask with 5 μg/mL Con-A and 1000 IU/mL IL-2 to activate T cells and induce OX40 expression. Binding to 100,000 activated rhesus CD4⁺ T cells was performed with 10 μg/mL OX40mAb24 and 9B12 serially diluted 3-fold in FACS buffer for a 10 point (experiment 1) or 12 point data curve (experiment 2) and 10 μg/mL human and mouse isotype controls diluted 6-fold for 2 data points (experiment 1) or 4 data points (experiment 2).
In general terms: In flow cytometry, cells or beads pass a laser one at a time.

A further test deals with T3, Rhesus monkey OX40 (rhesus monkey).
T3 construct: also called rhesus macaque OX40
Description: flow cytometry on activated primary CD4+ T cells. The protocol: as §1, §2

The target in the next test is T4, Mouse OX40 (mouse, UniProt P47741 20-272).
T4 construct: also called mOX40; murine OX40
T4 sequence: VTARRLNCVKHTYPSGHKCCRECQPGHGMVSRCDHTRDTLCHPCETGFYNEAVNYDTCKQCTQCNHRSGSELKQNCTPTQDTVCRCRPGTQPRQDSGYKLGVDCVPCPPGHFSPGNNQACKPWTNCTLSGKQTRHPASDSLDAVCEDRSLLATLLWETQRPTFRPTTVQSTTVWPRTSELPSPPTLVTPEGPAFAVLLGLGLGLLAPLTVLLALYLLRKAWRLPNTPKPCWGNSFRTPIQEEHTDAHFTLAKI
Briefly: flow cytometry, transfected 293F cells, column Mouse OX40 [FIGURE 32A con't]. The protocol:
Forty-eight hours after transfection, HEK293F cells were incubated with 1 μg/mL of OX40mAb24 for 1 hour on ice in PBS. To detect bound OX40mAb24 by flow cytometry, the cells were washed 3-times with cold PBS, incubated with 1 μg/mL of Alexa480-conjugated anti-human IgG antibody for 1 hr on ice, and then analyzed using the LSRII flow cytometer.
The expression levels of all chimeric OX40 variants were also monitored by flow cytometry; the cells were incubated with a mixture of sheep anti-human OX40 and goat anti-mouse OX40 polyclonal antibodies at 1 μg/mL in PBS for 1 hour on ice. Cells were washed 3-times with cold PBS, and then incubated with a mixture of Alexa480-conjugated anti-goat and anti-sheep IgG polyclonal antibodies. After washing 3 times with cold PBS, cells were analyzed with the LSRII flow cytometer.

In test [2] the target is T1, Human OX40. Description: flow cytometry on human OX40-overexpressing Jurkat NFkB-luciferase clone 64 cells, AlexaFluor 647 anti-human IgG secondary [panel C]. The protocol: Human OX40-overexpressing Jurkat NFκB-luciferase clone 64 cells were cultured in complete RPMI+10% FBS prior to binding experiments, without the need for activation.
OX40mAb24 (10 μg/mL) or 9B12 (10 μg/mL) was diluted over a 17 point 2-fold dilution series. OX40mAb24 was added to 100,000 cells (activated primary CD4⁺ T cells or human OX40-overexpressing Jurkat NFkB-luciferase clone 64 cells) per well and incubated for one hour at 4° C. For background binding subtraction, cells were incubated in the presence of secondary antibody alone. […] Following secondary antibody incubation, cells were washed and suspended in 100 μL FACS buffer for flow cytometry analysis on a BD LSRII flow cytometer as described below.

B1: OX40mAb24 (antibody, human IgG1, kappa)
heavy: QVQLQESGPGLVKPSQTLSLTCAVYGGSFSSGYWNWIRKHPGKGLEYIGYISYNGITYHNPSLKSRITINRDTSKNQYSLQLNSVTPEDTAVYYCARYKYDYDGGHAMDYWGQGTLVTVSSASTKGPSVFPLAPSSKSTSGGTAALGCLVKDYFPEPVTVSWNSGALTSGVHTFPAVLQSSGLYSLSSVVTVPSSSLGTQTYICNVNHKPSNTKVDKRV[skipping human IgG1 Fc]
light: DIQMTQSPSSLSASVGDRVTITCRASQDISNYLNWYQQKPGKAPKLLIYYTSKLHSGVPSRFSGSGSGTDYTLTISSLQPEDFATYYCQQGSALPWTFGQGTKVEIKRTVAAPSVFIFPPSDEQLKSGTASVVCLLNNFYPREAKVQWKVDNALQSGNSQESVTEQDSKDSTYSLSSTLTLSKADYEKHKVYACEVTHQGLSSPVTKSFNRGEC
notes: Humanized from 9B12; human IgG1 kappa; also called humanized anti-human OX40 IgG1κ monoclonal antibody
B1: in the test with Human OX40 [1], the “EC50, IL5 release, donor 367” value turned out to be 0.0467 nM; the “EC50, IL5 release, donor 651” value was 0.0959 nM; the “EC50, IL5 release, donor 661” value stood at 0.069 nM. Besides, in the test with Cynomolgus monkey OX40, the “fold of cyno Kd over human Kd” value was 1.9 fold. In addition, the “fold of rhesus Kd over human Kd” value in the test with Rhesus monkey OX40 is 1.2 fold. Further, the binding result with Mouse OX40 was “no binding (tested: 1 µg/mL)”. The “EC50 (read off the curve)” value with Human OX40 [2] was ~0.7 nM.

(Values after patent publication US20160137740A1 (AstraZeneca / MedImmune, published 2016).)
